The supplement of paper PMC3334620
In all, about 33,000 sequences were measured (“E-score (-0.5 to 0.5)”: median about -0.054, highest 2% from about 0.35 on). The list shows a part of the results.

Target: T1, Stb5 (UniProt P38699)
T1 sequence: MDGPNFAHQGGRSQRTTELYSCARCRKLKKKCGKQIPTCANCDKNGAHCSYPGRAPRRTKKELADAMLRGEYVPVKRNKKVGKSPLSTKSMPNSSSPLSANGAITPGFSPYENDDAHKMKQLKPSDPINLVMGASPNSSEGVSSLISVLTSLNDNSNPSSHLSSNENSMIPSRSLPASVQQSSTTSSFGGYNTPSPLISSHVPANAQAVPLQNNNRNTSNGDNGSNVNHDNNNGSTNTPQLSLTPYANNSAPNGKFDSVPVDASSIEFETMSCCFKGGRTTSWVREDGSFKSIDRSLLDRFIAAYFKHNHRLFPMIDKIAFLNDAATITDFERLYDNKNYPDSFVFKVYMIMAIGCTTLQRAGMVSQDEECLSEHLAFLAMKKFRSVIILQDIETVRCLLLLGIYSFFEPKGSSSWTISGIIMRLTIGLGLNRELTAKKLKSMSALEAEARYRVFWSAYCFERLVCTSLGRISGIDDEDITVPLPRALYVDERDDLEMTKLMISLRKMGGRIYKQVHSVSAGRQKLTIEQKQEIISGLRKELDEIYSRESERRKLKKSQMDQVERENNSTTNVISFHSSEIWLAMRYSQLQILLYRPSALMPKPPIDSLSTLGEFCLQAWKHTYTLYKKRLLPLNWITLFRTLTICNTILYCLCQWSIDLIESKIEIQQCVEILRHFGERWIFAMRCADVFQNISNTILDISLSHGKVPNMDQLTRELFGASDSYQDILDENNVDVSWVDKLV
Assay: PBM E-score (8-mer binding enrichment) (E-score (-0.5 to 0.5)); higher = stronger / more preferred TF binding; most listed sequences are background and not binding sites
Conditions: protein concentration: 200 nM; construct: GST-full length
Method in brief: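 PURExpress in vitro transcription/translation supplied GST-tagged yeast transcription factors, either full-length or DNA-binding domain. Applied at about 100-200 nM to universal all-10-mer Agilent arrays double-stranded by primer extension, the bound protein was detected with fluorescent anti-GST. E-scores, modified Wilcoxon-Mann-Whitney statistics, were given by the Universal PBM Analysis Suite to ungapped eight-base words pooled with their reverse complements after masliner normalisation.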

Sequence | PBM E-score
AGCCGGTC | 0.0141
CAGAATGC | 0.0745
CCTCTCCA | -0.3
ACGGGTGA | 0.0646
CGTCTTCA | 0.037
GCCCACGC | -0.298
AAATGTAC | -0.0592
ACGAGTCA | -0.213
CATAATTC | 0.0212
CGAAGAAA | -0.0335
TAAACTAA | 0.0107
AGTGATCC | -0.0706
TCACTCAA | -0.211
AAACGGGC | 0.19
ATATTTCG | 0.0939
AAGTATGC | -0.0425
GCTTACCC | -0.0687
GCTTAATA | -0.0753
ATGCCGTC | 0.352
ATGGTCTG | -0.239
CATTCGAA | -0.0861
ATTCGTTG | -0.0965

Sequence | PBM E-score
GATGTAAC | 0.0613
GATGGGAC | 0.0679
TCAAAACA | -0.0946
CTTTTCGC | 0.113
TCCGACAA | 0.324
CCTGCCAC | -0.224
TATAAGAA | -0.0144
CGGGTGAG | 0.0766
ATGCTCTA | 0.0757
AATTTGTC | -0.0381
CTTATAAG | 0.107
GAATGAAA | 0.0556
ACTAGATG | -0.193
CGGTGTCA | 0.471
AACACTCC | 0.107
AAAGCTCC | 0.276
CTCCGACC | 0.375
ACCCGCTG | 0.137
CCCCGGCG | 0.328
AACGGGTG | 0.155
AGCTAAGC | -0.136
CAACTCCG | 0.342

Sequence | PBM E-score
ATCCGCAA | 0.00079
CTCTTGCC | -0.148
AACGTAGA | -0.159
CAGCAACA | -0.0193
AGGCACCC | -0.149
CCGGGCAC | 0.246
ATCAATCG | -0.122
CGATGGTC | -0.118
ATTCGGAG | 0.201
CCTTGTAG | -0.188
GGGCCCGA | 0.193
CATAATGA | -0.0551
ATTGTGCA | -0.144
CTCTCAAG | -0.254
GAAGTCAC | -0.0552
AGCTCTTC | 0.0182
ATCGACTG | 0.0171
CTCCCCCC | -0.219
TATTTACA | -0.157
CCTGTCCG | 0.0505
CGGGAGCC | 0.00363
GGAAGGCC | 0.238

Sequence | PBM E-score
GTGCAAAC | 0.193
CATATGCA | -0.19
CCTGCTTC | -0.0253
GTGTAGCA | -0.172
ACCCAAAG | -0.113
CAAGAGTG | -0.186
CGTCAACA | -0.00929
AGGTGATA | 0.164
AGCTTAGA | -0.106
TACGAAGA | -0.204
AGCTTACT | -0.285
ACATATTG | -0.171
AAGGCAGC | -0.118
CCAGAAAG | -0.0818
CACCCGGG | 0.187
ACCCACAA | -0.14
GACTGACC | -0.0287
AGAGCAGC | -0.242
CAACTCGG | 0.0103
TCCATTCA | -0.163
